Source: PubChem BioAssay AID720708 (National Center for Advancing Translational Sciences (NCATS), 2013)
The whole screen tested about 360,000 compounds, of which about 660 (0.18%) were called active. The shares of active, inactive and inconclusive entries below differ from those in the screen. The call rests on the fitted dose curve; in most records, active means well fitted inhibition curve with a large enough effect; inconclusive means small, poorly fitted or top-dose-only effect; inactive means no such curve, though single readings can be large or run the other way. Potencies of inconclusive entries are left out as doubtful fits.
Further: nearly all actives have a fitted effect of over 45% in size.
On the % scale 0 is the no-effect control and ±100 the full control effect; potency means the concentration at half of the fitted maximal effect; tags describe the fitted curve by direction and shape.

These compounds were tested against Rap guanine nucleotide exchange factor 4 (Homo sapiens) (UniProt Q8WZA2) (assay: qHTS for Antagonist of cAMP-regulated guanine nucleotide exchange factor 2 (EPAC2): primary screen). Conditions: EPAC2 GEF exchange of Rap1B-BODIPY-GDP, fluorescence; activity, negative = inhibition: at 114 µM (top of the series) unless noted.
UniProt Q8WZA2, sequence (Q8WZA2 whole entry, looked up): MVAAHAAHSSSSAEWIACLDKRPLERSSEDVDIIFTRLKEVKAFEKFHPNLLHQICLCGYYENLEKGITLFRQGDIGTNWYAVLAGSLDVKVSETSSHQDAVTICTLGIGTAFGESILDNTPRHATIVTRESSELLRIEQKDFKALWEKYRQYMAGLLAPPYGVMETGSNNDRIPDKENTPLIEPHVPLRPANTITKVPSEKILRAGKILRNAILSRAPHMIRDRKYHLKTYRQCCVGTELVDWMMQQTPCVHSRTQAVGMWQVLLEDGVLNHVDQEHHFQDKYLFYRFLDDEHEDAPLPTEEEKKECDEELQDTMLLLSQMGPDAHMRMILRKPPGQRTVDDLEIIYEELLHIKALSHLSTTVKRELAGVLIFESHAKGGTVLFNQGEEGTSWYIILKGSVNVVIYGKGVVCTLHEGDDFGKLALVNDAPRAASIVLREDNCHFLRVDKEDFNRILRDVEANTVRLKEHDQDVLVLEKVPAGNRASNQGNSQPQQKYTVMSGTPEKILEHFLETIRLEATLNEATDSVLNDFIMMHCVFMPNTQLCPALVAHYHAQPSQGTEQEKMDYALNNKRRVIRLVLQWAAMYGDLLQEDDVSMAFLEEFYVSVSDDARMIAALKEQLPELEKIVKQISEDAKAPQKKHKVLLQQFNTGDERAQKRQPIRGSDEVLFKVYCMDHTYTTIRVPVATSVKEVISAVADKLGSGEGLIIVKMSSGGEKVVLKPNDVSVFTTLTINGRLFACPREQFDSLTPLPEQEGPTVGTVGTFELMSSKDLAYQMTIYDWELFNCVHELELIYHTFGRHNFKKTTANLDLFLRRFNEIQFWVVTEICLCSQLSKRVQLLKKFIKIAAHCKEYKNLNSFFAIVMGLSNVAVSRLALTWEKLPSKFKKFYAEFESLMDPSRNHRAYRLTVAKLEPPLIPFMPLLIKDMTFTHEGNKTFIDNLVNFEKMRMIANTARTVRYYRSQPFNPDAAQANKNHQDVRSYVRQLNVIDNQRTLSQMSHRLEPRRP
`CCCCCCCN(c1ccccc1)[C@@H]1C[C@H]2CCCC(=O)N3CC[C@@H](C1)[C@@H]23` was tested, and the Potency was inconclusive [inhibitor, full curve]. In the case of `Cc1cccc(N2CCN(C(=O)c3cc(=O)[nH]c4ccccc34)CC2)c1C`, the Potency is reported as inconclusive [inhibitor, full curve, poor fit]. In the case of `Cc1ccc(-c2cc(-c3ccccc3Cl)c(C#N)c(N)n2)o1`, the Potency is reported as “inactive”. In the case of `c1cn2cc(-c3ccc4c(c3)OCO4)nc2s1`, the Potency is reported as “inactive”. With `CC(C)CC1C(=O)N(Cc2cn(CCC3OCCO3)nn2)CCS(=O)(=O)N1Cc1ccc(-c2ccc(F)cc2)cc1` (stereo not given) the Potency was active: 12.6 µM. `Cc1ccc(Cc2c(-c3ccco3)nc3ccc(C)cn23)cc1` was tested, and the Potency was inconclusive [inhibitor, full curve]. For `CCS(=O)(=O)Nc1cccc(C2=NN(C(C)=O)C(c3cccs3)C2)c1` (stereo not given), the Potency was “inactive”. For `O=C(CCc1ccccc1F)N1CCN(c2ccc(C(F)(F)F)cn2)CC1`, the Potency was “inactive”. For `CCOC(=O)C1CCCN(C(=O)C(C)(C)Oc2ccc(Cl)cc2)C1` (stereo not given), the Potency was inconclusive [inhibitor, partial curve]. In the case of `CCOC(=O)c1cc(C)sc1NC(=O)CSC1=NCCS1`, the Potency is reported as inconclusive [inhibitor, full curve]. For `CC(=O)N1CCC(C(=O)OCc2ccccc2F)(c2ccccc2)CC1`, the Potency was inconclusive [inhibitor, partial curve]. `COc1ccc(NC(=O)C2(C)Cc3c(-c4ccc(C(N)=O)cc4)ccnc3O2)cc1` (stereo not given) was tested, and the Potency was “inactive”. In the case of `CN(C(=O)c1ccc(COc2ccccc2Cl)o1)c1ccccc1`, the Potency is reported as inconclusive [inhibitor, partial curve]. In the case of `COC(=O)CSc1nc(N2CCOCC2)c2c(c1C#N)CCCC2`, the activity, negative = inhibition is reported as inconclusive: -13.5% [inhibitor]. With `CCOC(=O)NNc1ccc2nonc2c1[N+](=O)[O-]` the Potency was inconclusive [inhibitor, partial curve]. `CCCCC[C@@H](C)N1C[C@@H](COCc2ccccc2)Oc2cc(N3CCC[C@@H]3CO)ccc2S1(=O)=O` was tested, and the Potency was inconclusive [inhibitor, partial curve]. With `Cc1ccc(-n2nnnc2C(=Cc2ccc(N(C)C)cc2)c2nnnn2-c2ccc(C)cc2)cc1` the Potency was “inactive”. In the case of `COc1cc(O)c(C=NN2C(=O)CSC2=S)c(OC)c1`, the Potency is reported as inconclusive [inhibitor, full curve]. With `Cn1cc([C@]2(O)C(=O)Nc3ccccc32)c2ccccc21` the Potency was inconclusive [inhibitor, full curve]. `Cc1ccc(C(=O)c2cc(C)sc2N)cc1` was tested, and the Potency was inconclusive [inhibitor, partial curve]. `CCOc1ccc(C=NNc2ccc(S(=O)(=O)Nc3ccccc3C(=O)O)cc2[N+](=O)[O-])cc1OC` was tested, and the Potency was “inactive”. For `CC(C)(C)C(=O)Nc1ccc(C(=O)Nc2cccc(Oc3ccc(C(=O)O)c(C(=O)O)c3)c2)cc1`, the Potency was “inactive”. `CC(C)c1ccc(S(=O)(=O)/N=C2/C=C(Sc3ncn[nH]3)C(=O)c3ccccc32)cc1` was tested, and the Potency was active: 89.1 µM. For `O=C(NCc1cccs1)C1CCCN1C(=O)Nc1ccccc1[N+](=O)[O-]` (stereo not given), the Potency was inconclusive [inhibitor, partial curve]. `CC(C)CCNC(=O)C(=O)Nc1ccc2c(c1)N(S(=O)(=O)c1cccs1)CCC2` was tested, and the Potency was inconclusive [inhibitor, single point]. For `O=C(O)c1cccc(OS(=O)(=O)c2cc(Br)ccc2Br)c1`, the Potency was inconclusive [inhibitor, partial curve]. For `Cc1ccccc1-c1ccc(CN2C(C(C)C)C(=O)N(Cc3cn(CCC4OCCO4)nn3)CCS2(=O)=O)cc1` (stereo not given), the Potency was inconclusive [inhibitor, full curve, poor fit]. For `Fc1ccc(-c2ccc3nccn3c2)cc1Cl`, the Potency was inconclusive [inhibitor, partial curve]. In the case of `COC(=O)C1=C(C)N(Cc2ccccc2)C(=S)N[C@H]1c1cccc(F)c1`, the Potency is reported as inconclusive [inhibitor, full curve]. With `CCOc1ccc(NC(=O)CN(C)C(=O)c2cc(-c3cccs3)nn2-c2ccccc2)cc1OCC` the Potency was “inactive”. For `CCCN(CCC)C(=O)c1cc([N+](=O)[O-])cc2c1-c1ccc([N+](=O)[O-])cc1C2=C(C#N)C#N`, the Potency was “inactive”. `CCN(CC)c1ccc(C(=O)O)cc1` was tested, and the Potency was “inactive”. For `CC(OC(=O)/C=C/c1ccc2ccccc2n1)C(=O)N(C)c1ccccc1` (stereo not given), the Potency was inconclusive [inhibitor, single point]. In the case of `Cc1cccc2sc(=S)[nH]c12`, the Potency is reported as “inactive”. For `N#Cc1ccc(OC(=O)C2CCN(C3=NS(=O)(=O)c4ccccc43)CC2)cc1`, the Potency was “inactive”. In the case of `Cc1cc(Cl)c2oc(C(=O)N(C)Cc3ccon3)c(C)c2c1`, the Potency is reported as inconclusive [inhibitor, partial curve]. For `O=C(COC(=O)CCc1c[nH]c(=O)[nH]1)Nc1ccccc1Cl`, the Potency was inconclusive [inhibitor, single point]. `Nc1nc(CSc2ccccc2)nc(N2CCCCC2)n1` was tested, and the Potency was inconclusive [inhibitor, partial curve]. `Cc1cccc(S(=O)(=O)N2CCCc3ccccc32)c1` was tested, and the Potency was inconclusive [inhibitor, full curve]. For `COc1ccccc1NC(=S)NCCc1c[nH]c2ccccc12`, the Potency was “inactive”. `O=C(O)c1ccccc1NS(=O)(=O)c1ccc(NN=Cc2ccccc2F)c([N+](=O)[O-])c1` was tested, and the Potency was inconclusive [inhibitor, partial curve]. `COc1ccc(C2CC(c3cccc(C)c3)n3nc(N)nc3N2)cc1` (stereo not given) was tested, and the Potency was inconclusive [inhibitor, single point]. For `S=c1[nH]nc(COc2ccc(Cl)cc2Cl)n1-c1ccccc1`, the Potency was inconclusive [inhibitor, partial curve]. With `Cc1cccc(CN2[C@@H](CC(C)C)COCCS2(=O)=O)c1` the Potency was inconclusive [inhibitor, full curve]. With `CCNC(=O)C1(C)CCN(C(=O)c2cccc(Cl)c2)C1` (stereo not given) the Potency was “inactive”. `CCCC(=O)c1cc2ccccc2oc1=O` was tested, and the Potency was “inactive”. `COc1ccccc1C(=O)NNC(=O)CCCN1C(=O)/C(=C/c2cccs2)SC1=S` was tested, and the Potency was “inactive”. `Cc1cc(C)c2c(c1)C(=O)/C(=C/c1ccc(C(=O)O)cc1)CC2` was tested, and the Potency was inconclusive [inhibitor, single point]. In the case of `CCOc1ccc(NC(=O)c2ccccc2NS(=O)(=O)c2ccc(F)cc2)c([N+](=O)[O-])c1`, the Potency is reported as inconclusive [inhibitor, partial curve]. `CN1C(=O)/C(=C/C=C2\SCCN2C)N(C)C1=S` was tested, and the Potency was inconclusive [inhibitor, full curve]. With `CCn1c(-c2nn(-c3ccc(C)cc3)ccc2=O)n[nH]c1=S` the Potency was “inactive”. `COc1ccc(Cn2nc(-c3ccccc3)c(N3CCCCC3)cc2=O)cc1` was tested, and the Potency was inconclusive [inhibitor, partial curve]. In the case of `CC1CCC(C(C)C)C(OC(=O)Cn2c(-c3ccc(Br)cc3)[n+](C)c3ccccc32)C1` (stereo not given), the activity, negative = inhibition is reported as inconclusive: -6.63% [inhibitor]. In the case of `Cc1cc(C(=O)NC2CCCN(Cc3ccc(Cl)cc3)C2)c(C)o1` (stereo not given), the Potency is reported as “inactive”. `O=C(O)CCSc1nnc(COc2cccc3ccccc23)n1-c1cccc(Cl)c1` was tested, and the Potency was inconclusive [inhibitor, partial curve, poor fit]. `CSc1nc(Cc2ccccc2)nc2ccccc12` was tested, and the Potency was inconclusive [inhibitor, partial curve]. With `CN1/C(=C/C=C(C#N)C#N)C(C)(C)c2ccccc21` the Potency was “inactive”. `Cc1ccc(S(=O)(=O)Nc2ccccc2C(C(=O)OC(C)(C)C)C(=O)OC(C)(C)C)cc1` was tested, and the activity, negative = inhibition was inconclusive: -33.4% [inhibitor]. `CCOc1ccc(Cn2c(=O)sc3ccccc32)cc1OC` was tested, and the Potency was inconclusive [inhibitor, partial curve]. For `COc1ccc2c(c1)/C(=N/OC(=O)c1cccs1)CCC2`, the Potency was inconclusive [inhibitor, partial curve]. `COc1ccc(C2=NN(Cc3c(F)cccc3Cl)C(=O)CC2)cc1` was tested, and the Potency was inconclusive [inhibitor, single point]. In the case of `O=C(COC(=O)c1cc(S(=O)(=O)N2CCOCC2)ccc1F)NCc1ccc2c(c1)OCO2`, the Potency is reported as “inactive”. In the case of `COc1ccccc1C(=O)NC(C)c1cccc2ccccc12` (stereo not given), the Potency is reported as inconclusive [inhibitor, partial curve]. With `CSCCC(NC(=O)COc1ccccc1)C(=O)N1CCN(c2cccc(C(F)(F)F)c2)CC1` (stereo not given) the activity, negative = inhibition was inconclusive: -20.9% [inhibitor]. With `CCCOc1ccccc1C1CC(=O)NC(C)=C1C(=O)OCC(C)C` (stereo not given) the Potency was inconclusive [inhibitor, single point]. `Clc1ccccc1Cc1noc(CN2CCSCC2)n1` was tested, and the Potency was inconclusive [inhibitor, single point]. For `Brc1ccc(CNc2ccc3ncccc3c2)cc1`, the Potency was inconclusive [inhibitor, partial curve]. `Fc1ccc2cnc(C3=CCCCC3)cc2c1` was tested, and the Potency was inconclusive [inhibitor, single point]. `COc1cccc(CC(=O)Nc2ccc(S(=O)(=O)Nc3nccs3)cc2)c1` was tested, and the Potency was inconclusive [inhibitor, partial curve]. With `C=Cc1ccc(Cn2nc(-c3ccc(C)cc3)ccc2=O)cc1` the Potency was inconclusive [inhibitor, partial curve].
